# Reference: the supplement of paper PMC8728848
# Some of the results follow.
# B1: Epa1-NP (Candida glabrata), Q6VBJ0 (protein)
# chain: MILNPALFLNKCVCIYTTLILLLLTNGGYATSSNDISLASKDPTTFPLGCSPDITTPKKGLSMELYSYDFRKKGSYPCWDAAYLDPNYPRTGYKSHRLLAKVDGVTGNINFYYHATKGCTPQLGHLPASYNYPKPLTMTNFTMLLYGYFRPKVTGFHTFTISADDLLFVNFGAGNAFDCCRRDSSADHFGNYQAYAIWGSKTAKDELTVHLDAGVYYPIRLFYNNREYDGALSFTFKTESNENTVSDFSEYFFSLDDTEEGCPGLISYDSSCASVKTSKIIGIDYHTETPNENLVPITKTIYHLGIPCTGTTTTPLCGSGFYDPLANKCVTINTSSTSSVTKTTSHTTSKEVSFHSSISSQKTLIPKSIPSPYGPIKSQSIPTEMETSSEISSSEYAFSDVISTPSHSPYTKKHSSLNSSSYTSTVIHSLTSYSISQGIFSTSLSEQNITSKSSTDKFSTATSMSNNITQSSIIISQFSTNNENYTTTSMHTSSDKISTETLNNSISTTTSILFSNSSTILKNNTTIISSDKDTHYHPVNPTIVCSTNKTEIICASITQPSISNSNNHWSSSVLKFNSTTVRSTLPSSAGSNETSINVPFSSSTESNTSTSSTSTSNSKMVRSTLPSSAGSNETSISVPFSSSTESNTSTSSTSTSNSKMVRSTLPSSAGSNETSINVPFSSSTESNTSTSSTSTSNSKTVRSTPFSSAGIIMTSLSQRNNKSASSYASSNSKCYNTADSCRKVHSTPSYLLTSSYTSEGVDYDCSLVSTKLKINDTNCVNNKHTTKSCLKTSVTTTIPTLEIKTARKSSSNTIGLHSYPTSSPNKSISSAPIIGYISSFKTIKTASPSYQTSDLTTITTITSLNNPGSTAVENTHESNDKSRKTSSNDISSKHSVIKETKDAVESSNKSHQTNTLKCSSIIIASSSHNSYESLGGTTLTLTLSKVYSPQNNDTLPFLEISEVNPSRTVLPESSKMMQYLTSTEERNKTARNTIATNIVSISTFHFEGEGNAIRMGYTQLLLMLIGIIVMNIGT
# Experiments:
# Assay in all cases: glycan array binding signal (z-score within array); higher = stronger binding
# Conditions in all cases: glycan notation: IUPAC condensed, linker removed
# [1] = molecular target: Fuc(a1-2)[Gal(a1-3)]Gal(b1-4)GlcNAc(b1-2)Man
# Procedure, shortened: (§1)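 The Consortium for Functional Glycomics database supplied 3228 glycan arrays, of which those lacking an available protein sequence were dropped. The binding signal, a within-array Z-score, was averaged across arrays of the same protein sequence and across linkers. Negative scores can be read as non-binding.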
# [2] = molecular target: Fuc(a1-2)[Gal(a1-3)]Gal(b1-4)GlcNAc(b1-2)Man(a1-3)[Fuc(a1-2)[Gal(a1-3)]Gal(b1-4)GlcNAc(b1-2)Man(a1-6)]Man(b1-4)GlcNAc(b1-4)GlcNAc
# Procedure, shortened: as §1
# [3] = molecular target: Fuc(a1-2)[Gal(a1-3)]Gal(b1-4)GlcNAc(b1-2)Man(a1-3)[Fuc(a1-2)[Gal(a1-3)]Gal(b1-4)GlcNAc(b1-2)Man(a1-6)]Man(b1-4)GlcNAc(b1-4)[Fuc(a1-6)]GlcNAc
# Procedure, shortened: as §1
# [4] = molecular target: Fuc(a1-2)[Gal(a1-3)]Gal(b1-4)GlcNAc(b1-3)GalNAc
# Procedure, shortened: as §1
# [5] = molecular target: Fuc(a1-2)[Gal(a1-3)]Gal(b1-4)GlcNAc(b1-3)[Fuc(a1-2)[Gal(a1-3)]Gal(b1-4)GlcNAc(b1-6)]GalNAc
# Procedure, shortened: as §1
# [6] = molecular target: Fuc(a1-2)[Gal(a1-3)]Gal(b1-4)GlcNAc(b1-6)GalNAc
# Procedure, shortened: as §1
# [7] = molecular target: Fuc(a1-2)[Gal(a1-3)]Gal(b1-4)[Fuc(a1-3)]Glc
# Procedure, shortened: as §1
# [8] = molecular target: Fuc(a1-2)[Gal(a1-3)]Gal(b1-4)[Fuc(a1-3)]GlcNAc
# Procedure, shortened: as §1
# [9] = molecular target: Fuc(a1-2)[Gal(a1-3)]Gal(b1-4)[Fuc(a1-3)]GlcNAc(b1-3)GalNAc
# Procedure, shortened: as §1
# [10] = molecular target: Fuc(a1-2)[Gal(a1-4)]Gal(b1-4)GalNAc
# Procedure, shortened: as §1
# [11] = molecular target: Fuc(a1-2)[Gal(a1-4)]Gal(b1-4)GlcNAc
# Procedure, shortened: as §1
# [12] = molecular target: Fuc(a1-2)[GalNAc(a1-3)]Gal
# Procedure, shortened: as §1
# [13] = molecular target: Fuc(a1-2)[GalNAc(a1-3)]Gal(b1-3)GalNAc(a1-3)[Fuc(a1-2)]Gal(b1-4)GlcNAc
# Procedure, shortened: as §1
# [14] = molecular target: Fuc(a1-2)[GalNAc(a1-3)]Gal(b1-3)GalNAc(b1-3)Gal(a1-4)Gal(b1-4)Glc
# Procedure, shortened: as §1
# [15] = molecular target: Fuc(a1-2)[GalNAc(a1-3)]Gal(b1-3)GlcNAc
# Procedure, shortened: as §1
# [16] = molecular target: Fuc(a1-2)[GalNAc(a1-3)]Gal(b1-3)GlcNAc(b1-2)Man(a1-3)[Fuc(a1-2)[GalNAc(a1-3)]Gal(b1-3)GlcNAc(b1-2)Man(a1-6)]Man(b1-4)GlcNAc(b1-4)GlcNAc
# Procedure, shortened: as §1
# [17] = molecular target: Fuc(a1-2)[GalNAc(a1-3)]Gal(b1-3)GlcNAc(b1-2)Man(a1-3)[Fuc(a1-2)[GalNAc(a1-3)]Gal(b1-3)GlcNAc(b1-2)Man(a1-6)]Man(b1-4)GlcNAc(b1-4)[Fuc(a1-6)]GlcNAc
# Procedure, shortened: as §1
# [18] = molecular target: Fuc(a1-2)[GalNAc(a1-3)]Gal(b1-3)GlcNAc(b1-3)GalNAc
# Procedure, shortened: as §1
# [19] = molecular target: Fuc(a1-2)[GalNAc(a1-3)]Gal(b1-3)GlcNAc(b1-6)GalNAc
# Procedure, shortened: as §1
# [20] = molecular target: Fuc(a1-2)[GalNAc(a1-3)]Gal(b1-4)Glc
# Procedure, shortened: as §1
# [21] = molecular target: Fuc(a1-2)[GalNAc(a1-3)]Gal(b1-4)GlcNAc
# Procedure, shortened: as §1
# [22] = molecular target: Fuc(a1-2)[GalNAc(a1-3)]Gal(b1-4)GlcNAc(b1-2)Man
# Procedure, shortened: as §1
# [23] = molecular target: Fuc(a1-2)[GalNAc(a1-3)]Gal(b1-4)GlcNAc(b1-2)Man(a1-3)[Fuc(a1-2)[GalNAc(a1-3)]Gal(b1-4)GlcNAc(b1-2)Man(a1-6)]Man(b1-4)GlcNAc(b1-4)GlcNAc
# Procedure, shortened: as §1
binder,measurement,setting,value
B1,glycan array binding signal (z-score),[1],-0.273
same,glycan array binding signal (z-score),[2],-0.268
same,glycan array binding signal (z-score),[3],-0.301
same,glycan array binding signal (z-score),[4],-0.269
same,glycan array binding signal (z-score),[5],-0.281
same,glycan array binding signal (z-score),[6],-0.29
same,glycan array binding signal (z-score),[7],-0.267
same,glycan array binding signal (z-score),[8],-0.284
same,glycan array binding signal (z-score),[9],-0.197
same,glycan array binding signal (z-score),[10],1.74
same,glycan array binding signal (z-score),[11],-0.051
same,glycan array binding signal (z-score),[12],-0.287
same,glycan array binding signal (z-score),[13],-0.271
same,glycan array binding signal (z-score),[14],-0.282
same,glycan array binding signal (z-score),[15],-0.326
same,glycan array binding signal (z-score),[16],-0.294
same,glycan array binding signal (z-score),[17],-0.265
same,glycan array binding signal (z-score),[18],-0.097
same,glycan array binding signal (z-score),[19],-0.291
same,glycan array binding signal (z-score),[20],-0.333
same,glycan array binding signal (z-score),[21],-0.336
same,glycan array binding signal (z-score),[22],-0.294
same,glycan array binding signal (z-score),[23],-0.263
